Results reported in PMC4336329 (PLoS ONE, 2015).
The campaign covered roughly 310,000 compounds. About 14,000 (4.5%) showed an effect of 50% or more. Effects have a minus sign here. The list shows a part of the results.

These compounds were tested against human ether-à-go-go-related gene (hERG) potassium channel (human, UniProt Q12809) (assay: primary screen, population patch clamp on CHO cells stably expressing hERG).
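Note: peak tail current of the secondary pulse compared with the same well before compound.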

Chain of human ether-à-go-go-related gene (hERG) potassium channel (Q12809 whole entry, looked up): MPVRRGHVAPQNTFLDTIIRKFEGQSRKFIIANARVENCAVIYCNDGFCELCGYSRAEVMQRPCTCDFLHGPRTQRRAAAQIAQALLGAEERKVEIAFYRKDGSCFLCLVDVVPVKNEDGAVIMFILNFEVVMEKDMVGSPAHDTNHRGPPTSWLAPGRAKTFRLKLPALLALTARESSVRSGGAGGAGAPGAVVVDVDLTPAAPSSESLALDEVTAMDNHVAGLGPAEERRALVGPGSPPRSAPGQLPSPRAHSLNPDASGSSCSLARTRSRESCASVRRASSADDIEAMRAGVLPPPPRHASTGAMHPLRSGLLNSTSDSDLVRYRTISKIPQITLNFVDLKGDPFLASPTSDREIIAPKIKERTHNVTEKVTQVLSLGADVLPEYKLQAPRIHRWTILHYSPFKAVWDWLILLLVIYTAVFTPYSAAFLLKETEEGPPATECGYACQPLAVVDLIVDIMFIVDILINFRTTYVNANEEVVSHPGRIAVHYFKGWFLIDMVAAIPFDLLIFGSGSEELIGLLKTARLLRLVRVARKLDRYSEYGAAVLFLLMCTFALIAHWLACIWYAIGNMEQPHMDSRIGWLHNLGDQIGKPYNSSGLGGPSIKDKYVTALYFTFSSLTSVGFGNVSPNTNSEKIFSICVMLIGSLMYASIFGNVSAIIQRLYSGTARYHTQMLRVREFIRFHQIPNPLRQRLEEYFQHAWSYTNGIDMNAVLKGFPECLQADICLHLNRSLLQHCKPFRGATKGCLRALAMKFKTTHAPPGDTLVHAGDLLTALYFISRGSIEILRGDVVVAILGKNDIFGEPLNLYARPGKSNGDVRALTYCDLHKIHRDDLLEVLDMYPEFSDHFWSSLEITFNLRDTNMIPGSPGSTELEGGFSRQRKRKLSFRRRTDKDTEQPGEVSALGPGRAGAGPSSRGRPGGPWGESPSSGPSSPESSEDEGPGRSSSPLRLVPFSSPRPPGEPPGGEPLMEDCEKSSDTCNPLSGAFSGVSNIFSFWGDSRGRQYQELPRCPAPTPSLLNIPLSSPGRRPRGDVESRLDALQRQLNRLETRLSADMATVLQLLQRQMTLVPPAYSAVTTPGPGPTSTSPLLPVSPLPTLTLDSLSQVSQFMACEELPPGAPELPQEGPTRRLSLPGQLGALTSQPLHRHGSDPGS

Structure (SMILES) | hERG current change (%, negative = inhibition) at 10uM
Cc1ccc(S(=O)(=O)/N=C(/Nc2ccc([N+](=O)[O-])cc2)c2ccccc2)cc1 | 12.2%
Cc1ccccc1C(=O)NN1CC(C(=O)OCc2ccc(Cl)c(Cl)c2)CC1=O (stereo not drawn) | -31.6%
O=C(NCC1CCCO1)C1CCCN(S(=O)(=O)c2cccc(C(F)(F)F)c2)C1 (stereo not drawn) | 4.31%
CC1Sc2ccc(S(=O)(=O)N3CCC(C(=O)NCc4ccco4)CC3)cc2NC1=O (stereo not drawn) | -16.2%
COCc1cc(=O)n2[nH]cc(-c3ccccc3)c2n1 | 9.45%
O=C(NCC1CC1)C1(S(=O)(=O)c2ccccc2)CC=CC1 | 11%
CCCCCC(O)CCc1n[nH]c(=S)n1-c1ccccc1 (stereo not drawn) | 16.6%
CC(C)CN(C(=O)COC(=O)CSc1ccccc1)c1c(N)n(Cc2ccccc2)c(=O)[nH]c1=O | 11.3%
O=C1N=C(N2CCOCC2)S/C1=C/c1cc2c(cc1[N+](=O)[O-])OCO2 | 8.71%
Cc1sc2ncnc(N3CCC(C(=O)NNC(=O)COc4ccccc4F)CC3)c2c1C | -57%
Cc1nc(C(=O)NCCC(C)C)sc1C1(C)CC(c2ccccc2)=NO1 (stereo not drawn) | -9.61%
COc1ccc(Nc2nc(N3CCOCC3)nc(N3CCOCC3)n2)c(OC)c1 | 8.58%
Cc1ccc(N2C(=O)CC(SCC(=O)Nc3ccc(S(N)(=O)=O)cc3)C2=O)cc1 (stereo not drawn) | 17.5%
CCOC(=O)C1CCCN(Cc2cccs2)C1 (stereo not drawn) | -4.36%
CCOC(=O)c1cc(-c2ccc(F)cc2)n(CC(=O)N2CCCC2)c1C | -2.89%
CC(C)(C)c1ccc(OCC(=O)NNC(=O)Nc2ccccc2)cc1 | -8.9%
CC(C)(C)C(=O)Nc1c(Cl)cccc1OC(F)(F)F | 10.7%
NC(=O)c1ccc(N2CCOCC2)nc1 | 23.6%
COc1ccc(C(=O)Nc2ccnn2C2CCN(C(=O)c3cc(C)on3)CC2)cc1 | 2.28%
CC(C(=O)Nc1ccc2nccnc2c1)N1C(=O)C2C3C=CC(C3)C2C1=O (stereo not drawn) | 4.05%
Nc1nonc1-n1nnc(C(=O)N/N=C/c2ccc(Br)cc2)c1-c1ccc2c(c1)OCO2 | 25.4%
CCOC(=O)c1[nH]c(C)c(C(=O)Nc2ccc(C)cc2C)c1C | -1.41%
Cc1ccc(C(=O)N2CCCCC2)cc1NC1=C(Cl)C(=O)N(Cc2ccccc2)C1=O | -22%
COc1cc2c(=O)n(Cc3ccccc3)c(=O)n(CC(=O)NCCc3ccccc3)c2cc1OC | 0.36%
COc1ccc(C2Nc3ccccc3C(=O)N2Cc2ccco2)cc1COc1ccc([N+](=O)[O-])cc1 (stereo not drawn) | -7.23%
COc1ccc(-n2nc(C(=O)NCC(=O)NCCCN3CCOCC3)c3ccccc3c2=O)cc1Cl | -12.6%
CCC(C)C12CN3CCN(CC(C)(C3)C1O)C2 (stereo not drawn) | 9.31%

Structure (SMILES) | hERG current change (%, negative = inhibition) at 10uM
c1ccc(-c2noc(CSc3nnc(Cc4cccs4)n3-c3ccccc3)n2)cc1 | -17.8%
O=C(COC(=O)Cc1cn2ccsc2n1)NCc1ccc2c(c1)OCO2 | -15.2%
Cc1ccc(C)c(NC(=O)CN(C)C(=O)CN2C(=O)C3CCCCC3C2=O)c1 (stereo not drawn) | 10%
Cc1ccc(NC(=O)COC(=O)CCc2ccc(S(=O)(=O)N3CCOCC3)cc2)cc1C | -6.09%
C(=N\Nc1ccccn1)/c1ccc(N2CCOCC2)cc1 | 3.55%
O=c1cc(CN2CCN(c3cccc(Cl)c3)CC2)c2cc(O)c(-c3ccccc3)cc2o1 | 17.7%
Cc1c(C(=O)N(C)CCc2cnn(C)c2)oc2c(F)cccc12 | 4.52%
CC1(C)CC(=O)C2=C(C1)Nc1ccccc1N(C(=O)C1CC1)C2c1ccco1 (stereo not drawn) | -16.7%
COC(=O)c1cccc(N(C(=O)CNC(=O)c2cccs2)C(C(=O)NCC2CCCO2)c2ccc(OC)c(OC)c2)c1 (stereo not drawn) | 18.6%
Cc1cc(OCC(=O)N2CCOCC2)ccc1NC(=O)c1ccccc1C | 22.4%
Cc1ccc2cc(COC(=O)c3ccco3)c(=O)[nH]c2c1 | 8.25%
COc1cccc(-c2coc3cc4oc(=O)c(CC(=O)O)c(C)c4cc23)c1 | 25.9%
Cc1cc(NC(=O)CSc2cn(CCNC(=O)c3ccc(F)cc3)c3ccccc23)no1 | -37.2%
O=C(c1ccc(Cl)c(S(=O)(=O)N2CCCC2)c1)N1CCN(c2ccccn2)CC1 | -31.3%
COc1ccccc1N1CCN(Cc2nc(N)nc(Nc3ccc(C)c(Cl)c3)n2)CC1 | -75.5%
Cc1cccc(OCC(O)CN2C(C)(C)CC(O)CC2(C)C)c1C (stereo not drawn) | -51.3%
CCCn1cc(CN2CCC(C(=O)Nc3cccc(-c4cscn4)c3)CC2)c(C)n1 | -45.3%
CCCn1c(NCc2cc(C)ccc2O)nc2ccccc21 | -4.47%
COc1cc(/C=N/Nc2nc(C)cc(=O)[nH]2)ccc1OC(=O)c1cccnc1 | 13.3%
CCOc1ccccc1C(=O)OCC(=O)NCCNC(=O)COC(=O)c1ccccc1OCC | 5.95%
Cc1ccccc1-c1ccc(CN2CCN(C)C(CCO)C2)cc1 (stereo not drawn) | -14.1%
Cc1cc(C)c(C)c(Oc2ncnc(N)c2[N+](=O)[O-])c1 | 0.646%
CCOC(=O)NNc1nncc2ccccc12.Cl | 2.17%
Cc1[nH][nH]c(=O)c1C=NCc1cccc(C(F)(F)F)c1 | 15.4%
Fc1ccccc1-c1nc(-c2ccc(Br)o2)no1 | 9.97%
COc1ccc2c(c1)c(C(=O)CN1CCN(C)CC1)c(C)n2Cc1ccccc1 | -35%
Cc1nc(-c2nc(-c3c(C(=O)NNC(=O)Nc4ccccc4)noc3C)cs2)cs1 | 9.28%
